# Reference: paper PMC10668032
# Some of the results follow. At the low end of the ranking, values are background and their order means little.
# Molecular target: SIX1 homeodomain (reference allele) (UniProt Q15475)
# Assay: universal protein binding microarray
# Conditions: Universal all-10-mer PBM (8x60K, AMADID 030236), 300 nM GST-tagged protein, Alexa Fluor 488 anti-GST; buffer, salt, pH and temperature not stated; high values mean tight binding; most listed sequences are background and not binding sites; double strand, one strand shown
row,Sequence,binding signal [E-score]
1,AGCGCACG,-0.2
2,AAAGGACC,-0.4
3,CAAAGCCC,-0.218
4,ATTTTGCG,-0.114
5,AGGGTTTG,-0.16
6,ACCTTAAG,-0.138
7,CCGTTCCA,-0.135
8,ACGCTCCT,-0.0782
9,ACATCAGA,-0.0486
10,CTGATCAA,0.0834
11,CTAGGTCA,-0.277
12,TACGACCA,0.0621
13,AGTTTACA,-0.162
14,CCTAGTTC,-0.127
15,AGGTTCCG,-0.161
16,ACTCAGAC,-0.0537
17,GTAGACGA,0.0245
18,ATTGGCCC,-0.244
19,ACTACACG,-0.00271
20,AAACTCAG,-0.198
21,CTGAACGC,-0.191
22,AGGCATGA,-0.207
23,GAATGTAA,-0.109
24,CTAAACAA,-0.22
25,GCCTTGCA,-0.18

row,Sequence,binding signal [E-score]
1,CCAGGCAG,0.0426
2,ACCGAGGT,0.122
3,CCTTCTTA,0.0256
4,AGGAACAC,0.0451
5,CAAGGCCG,-0.118
6,GCAGAATA,0.108
7,ACCTAACA,0.0828
8,CACACTGA,0.0892
9,ACATTGGG,-0.175
10,ACTTGTGG,-0.0851
11,TGATCACA,0.254
12,AGCAGTCG,-0.162
13,AGTTCAAG,-0.194
14,CCGGCTGA,0.0686
15,CCGCACAG,-0.0162
16,ATAGGTGA,0.0531
17,CGAGGGAA,-0.117
18,GCAGCTCC,-0.157
19,CATACGCA,-0.00165
20,AGTCTACA,-0.166
21,AGGGCACT,-0.328
22,ACGCCAGA,0.0316
23,GGAAATCC,-0.0963
24,TAGTTTGA,0.0493
25,GTGCTCGA,-0.231

row,Sequence,binding signal [E-score]
1,ATTAGCAG,-0.0522
2,ATCCAAGA,0.155
3,GCTCTGCA,-0.221
4,CCCTTACA,-0.067
5,CAGGAGCG,-0.118
6,GACCGAGC,-0.167
7,AACGCGGA,-0.143
8,ACAGAAAC,-0.144
9,ATGCATCC,0.0381
10,AGTGTGGC,-0.165
11,CATAGACC,-0.0122
12,ACTCTCAA,-0.125
13,TCGGTGAA,-0.0606
14,TTCCAGAA,-0.0604
15,GTACTCTA,0.0466
16,CACACCGC,0.164
17,ATTTCGAA,-0.307
18,GCATGCAC,-0.143
19,CGCAGAAG,-0.139
20,CCCAGTCA,-0.18
21,AACAAACG,-0.226
22,ACCACCTA,-0.0312
23,CAGGCGTC,-0.117
24,ACAGCATG,-0.0806
25,GGACAGAC,-0.192

row,Sequence,binding signal [E-score]
1,AGAGCTGC,-0.132
2,AGGTACAT,0.00426
3,CTAGCTAC,-0.0574
4,CCATCACG,0.0582
5,CAGTTCAG,-0.0715
6,GTCCGCAC,-0.257
7,AAAGTGAG,0.0798
8,TCCGCCAA,0.042
9,TCAAAAAA,-0.262
10,GACCACTA,-0.0946
11,CGTTATAA,-0.0153
12,CCAGGTGA,0.0318
13,CACTGTCC,0.0661
14,TGGAACAA,-0.0711
15,GATTTGAA,-0.19
16,GAGCTACC,-0.0996
17,GATGCAAA,-0.0767
18,GTATGCCA,0.0821
19,CGTTGTAA,-0.137
20,AAACTCAC,-0.154
21,AATGACAT,-0.0364
22,AAATCCTT,-0.113
23,CGATTAAG,-0.231
24,AAGAACTC,-0.185
25,AGAGTGAA,-0.149

row,Sequence,binding signal [E-score]
1,CTCAACGC,-0.168
2,GCTGGTCC,-0.0926
3,ACGGTTGG,-0.0417
4,AAGAGAAA,-0.138
5,GGATTACC,0.271
6,CATCTAAC,0.0244
7,GGTAGTAA,-0.0504
8,AATCGCAC,-0.0975
9,TCTATACA,0.243
10,CAACTCGA,-0.0381
11,GGGACACA,0.0444
12,ATGCGTGC,-0.0992
13,ACGGGGCC,-0.159
14,ACTGCAAA,-0.0245
15,CATCTGAG,0.0848
16,ACAGGACT,-0.163
17,AACCGCTA,0.00775
18,GCGGGTCA,-0.0674
19,CCGATTAC,0.0959
20,ACCGTGAA,-0.243
21,CCGTTTCC,-0.237
22,AGTGGTCA,-0.209
23,AAATGGGT,-0.0909
24,AATAGTAC,0.0505
25,CCCTAACG,-0.0971

row,Sequence,binding signal [E-score]
1,GCGCACGA,-0.0712
2,CATACCGA,0.112
3,CCTCGCCA,-0.106
4,ACTACCCT,0.00554
5,AACCCATA,0.263
6,CCTCCAAA,0.0312
7,ATTAAACA,-0.133
8,AGTAATTG,-0.107
9,CGATAGTA,0.263
10,AAGAAGAA,0.00103
11,ACACTGGT,0.0103
12,TCACTCGA,0.124
13,AGGGACGA,-0.129
14,CCTGACTA,0.101
15,ATGCTGGC,-0.153
16,TCACATGA,0.166
17,GGATCTCA,0.298
18,ACGGGTGG,0.111
19,CGGCAAAC,-0.0372
20,TATAATAA,0.1
21,AGTCGCCC,-0.206
22,GGTGTCAC,0.476
23,ACTGAAGC,0.0644
24,CACTAGGC,-0.179
25,GCTGATAC,0.459

row,Sequence,binding signal [E-score]
1,GCACTTCC,-0.345
2,CCACAAGA,0.0343
3,ATTGTAAC,0.0267
4,ACCGCGAG,0.00066
5,CACGACTA,-0.0311
6,CTCAGTAC,-0.143
7,AATAAATA,0.0556
8,GATATACC,0.459
9,CGAATTTC,0.0192
10,GAGTCACA,-0.0163
11,CATGTCGA,0.0339
12,CCCGATTA,0.187
13,CGGGATAA,0.17
14,ATGTTCTC,-0.0557
15,ATGAATCC,0.0152
16,AACTAGCT,-0.13
17,ACTCCCAT,0.00598
18,AACATTGG,-0.312
19,ACCGCCGT,-0.0402
20,GCAATTCA,-0.211
21,AGCGGAGG,-0.226
22,CCTTGACC,-0.128
23,GATCATGA,0.273
24,GGGAACGA,-0.139
25,CGATCTAA,0.11

row,Sequence,binding signal [E-score]
1,ATGCTATC,0.241
2,TGATAGCA,0.323
3,CCAACAGC,-0.0815
4,CGTCCCGC,-0.201
5,CAAGCGTA,-0.0147
6,ATCAACCA,0.139
7,AGTGAAGG,-0.0817
8,GCTAATAA,-0.0747
9,AGACCGCC,-0.0301
10,TATCGGGA,0.317
11,CCGCGGAC,-0.126
12,AACAACAA,-0.142
13,AGCAGCTG,-0.219
14,GTCTCTGA,-0.00624
15,GTAACTCA,-0.26
16,AGAAATCC,0.0198
17,AATACTCC,0.112
18,ATTAGATC,0.287
19,GAGAACTA,-0.003
20,ATCGATCA,0.17
21,GGAAGCAA,-0.204
22,AGTATAAC,0.145
23,CATTGATC,0.265
24,ATCTGCCG,0.0863
25,GCGATTAC,-0.043

row,Sequence,binding signal [E-score]
1,AATTCTCG,-0.106
2,GGACGGCC,-0.192
3,CGTGCCCA,-0.0655
4,GCAACTCA,-0.211
5,TAGATACA,0.25
6,AACCGTCG,-0.175
7,CGAGTAAG,-0.103
8,CAATAGCA,0.0849
9,ATCACTGG,0.215
10,GCAGATCA,0.369
11,CTCGTGAC,-0.0534
12,ACCCCTCA,0.0622
13,CGTTTTGA,-0.0843
14,CTGTTGCA,-0.162
15,AAATGTAT,0.0352
16,CTGAAAGC,0.0299
17,GTGGTGGA,0.00264
18,AGCTATCG,0.284
19,TCTCCAAA,0.083
20,CGATACCA,0.455
21,CTAGCGAC,-0.122
22,AGAACCAT,-0.178
23,CTCCCAAC,-0.248
24,AGAGTAGA,0.112
25,AAGCCGAG,-0.0919

row,Sequence,binding signal [E-score]
1,CGTTAATC,0.0692
2,CAGGTGGA,-0.0882
3,CGCTAGCA,-0.113
4,CAATCCAG,0.02
5,GCCATGGC,-0.266
6,CGAGCCCA,-0.0153
7,CATGAGGC,-0.14
8,CCGTTAGA,0.0115
9,ATAGAACG,-0.0978
10,ACAGAACC,-0.164
11,AAGTGGGC,-0.104
12,CTGATATC,0.465
13,CACAGCAC,-0.226
14,CAGTCGCG,-0.0664
15,CTCTGTGA,-0.00839
16,CAAGACGA,0.0543
17,CAAAGGAC,-0.266
18,AAACGTGA,-0.125
19,AGACAGGC,-0.134
20,ATGCTTGG,-0.118
21,CACAGAAA,-0.192
22,CTACACCA,0.312
23,AGCGTTCC,-0.275
24,CTGCGTCA,-0.126
25,GAGTTGAA,-0.261

row,Sequence,binding signal [E-score]
1,GCTGCCGA,-0.153
2,GAGAGGCA,-0.0264
3,ATTTTTGG,-0.258
4,CCCACAGG,0.0516
5,ACTCAGGC,-0.147
6,AATGAGCG,-0.178
7,CTCATGAG,-0.0407
8,AGAGGATA,0.326
9,CCGGCCAC,-0.295
10,AGGCTCCC,-0.249
11,ACAGGGCG,-0.18
12,ACTGCTAG,-0.07
13,ACGGTCCC,-0.22
14,CAACGCAG,-0.067
15,AGGTGGAA,-0.0483
16,AGCCTCCC,-0.151
17,AAGTTCGG,-0.217
18,AACGCACT,-0.212
19,AAATTTAG,-0.089
20,AATGGTTC,-0.198
21,ACATAAAG,-0.149
22,CGCTAGTC,-0.146
23,ACTGAGCA,-0.07
24,ATACCATG,0.362
25,AAACAAAC,-0.226

row,Sequence,binding signal [E-score]
1,CAGACCAG,-0.23
2,CTCGCGTC,-0.0573
3,ACGGCTGA,0.056
4,AACCGAAT,-0.0453
5,ATCTCCAC,0.204
6,TGCCTGAA,-0.231
7,ACTGCCAA,-0.121
8,AAATGTTG,-0.354
9,AGTCATCA,-0.18
10,GGAATTGA,0.04
11,CCGAGTCG,0.0982
12,CCTGGACA,-0.0535
13,CAACCCCG,0.022
14,GTTTCTTA,-0.0974
15,ACTGCAGG,-0.171
16,CGATGTAA,-0.0517
17,ATAAAAAG,-0.115
18,ATAAGTGA,0.0269
19,GGTCCCAA,-0.209
20,CCTGAACA,-0.153
21,CATGTGGA,-0.0951
22,AACAGAAC,-0.199
23,GAGAGATC,0.286
24,GATGGTTA,0.0146
25,ATAGCGAT,0.294

row,Sequence,binding signal [E-score]
1,ACATGCGG,-0.0397
2,AGAAGTAA,-0.205
3,AACCGGCG,0.143
4,TAAAACAA,-0.16
5,ATAGTGTG,0.0701
6,GGTTAGTA,0.114
7,GAATCGGA,-0.0367
8,CACATCCG,0.00255
9,CCCGAACC,0.0575
10,GGAATAAC,0.0281
11,CCCCCCGA,0.208
12,CCGGAAGC,-0.0557
13,CGAAATAG,-0.0895
14,GGAGGGAC,-0.0771
15,ACAGGTCG,-0.114
16,ACCAAGAC,0.0105
17,TAATCACA,0.14
18,AATTATAC,0.165
19,GGTGAATA,-0.0319
20,AAGGAACG,-0.024
21,ACGCTACT,-0.146
22,CAGGCGAA,-0.198
23,CCCTCAAC,-0.184
24,TGCCCCAA,0.0374
25,TCGAATAA,-0.214

row,Sequence,binding signal [E-score]
1,ATTCTCTA,0.0459
2,GATCCATA,0.357
3,CGGTCTTA,-0.0731
4,GACGCACA,-0.0887
5,CGTGCGCC,-0.04
6,ATAGTGGG,0.0656
7,ACGCGCCT,-0.129
8,ATTTATGG,0.017
9,ACCCAGCG,-0.0406
10,CTACGCGC,-0.0911
11,ACTAAACA,-0.262
12,AGCTCGTA,-0.0164
13,CGCGGCCA,-0.269
14,CCACAGGA,-0.0776
15,GCGACGGA,-0.0438
16,CCAAGCTA,-0.131
17,ATAGGCCG,-0.135
18,AACATAAG,-0.265
19,AGTACGGG,-0.146
